# Results taken from paper PMC4336329 (PLoS ONE, 2015).
# Screen size: about 310,000 compounds; about 14,000 (4.5%) showed an effect of 50% or more. Effects have a minus sign here. The list shows a part of the results.
# Target: human ether-à-go-go-related gene (hERG) potassium channel (human, UniProt Q12809)
# Assay: primary screen, population patch clamp on CHO cells stably expressing hERG
# 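Note: peak tail current of the secondary pulse compared with the same well before compound.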
# Chain of human ether-à-go-go-related gene (hERG) potassium channel (Q12809 whole entry, looked up): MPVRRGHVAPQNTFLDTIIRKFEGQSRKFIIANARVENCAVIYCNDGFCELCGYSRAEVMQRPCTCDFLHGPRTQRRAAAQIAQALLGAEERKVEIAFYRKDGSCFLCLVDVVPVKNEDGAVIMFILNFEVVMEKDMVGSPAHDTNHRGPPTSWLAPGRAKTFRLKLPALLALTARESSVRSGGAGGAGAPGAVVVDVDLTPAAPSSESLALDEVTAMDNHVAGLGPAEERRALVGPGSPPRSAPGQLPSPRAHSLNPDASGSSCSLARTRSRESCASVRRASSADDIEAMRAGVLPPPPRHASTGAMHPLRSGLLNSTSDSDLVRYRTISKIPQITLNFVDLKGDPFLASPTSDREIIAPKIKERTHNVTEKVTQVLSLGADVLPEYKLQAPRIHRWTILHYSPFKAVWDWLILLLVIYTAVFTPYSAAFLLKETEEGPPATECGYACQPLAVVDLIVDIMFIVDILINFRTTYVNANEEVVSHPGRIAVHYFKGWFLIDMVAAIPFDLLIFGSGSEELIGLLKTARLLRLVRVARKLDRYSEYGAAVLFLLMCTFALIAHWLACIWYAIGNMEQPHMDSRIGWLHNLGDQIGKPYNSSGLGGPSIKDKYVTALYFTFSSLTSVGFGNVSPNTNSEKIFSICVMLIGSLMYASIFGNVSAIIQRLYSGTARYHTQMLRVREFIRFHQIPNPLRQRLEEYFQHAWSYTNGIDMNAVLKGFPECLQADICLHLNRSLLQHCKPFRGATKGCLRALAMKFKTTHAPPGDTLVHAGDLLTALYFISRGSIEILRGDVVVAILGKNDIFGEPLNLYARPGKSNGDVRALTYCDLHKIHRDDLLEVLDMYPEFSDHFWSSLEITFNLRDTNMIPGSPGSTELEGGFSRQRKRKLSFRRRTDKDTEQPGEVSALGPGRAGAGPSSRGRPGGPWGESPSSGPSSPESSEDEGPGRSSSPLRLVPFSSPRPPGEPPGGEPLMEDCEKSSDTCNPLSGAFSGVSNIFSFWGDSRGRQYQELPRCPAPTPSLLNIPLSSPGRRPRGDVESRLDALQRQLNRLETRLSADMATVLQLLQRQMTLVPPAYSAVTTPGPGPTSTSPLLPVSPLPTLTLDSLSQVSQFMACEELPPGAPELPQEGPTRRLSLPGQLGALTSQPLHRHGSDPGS
row,Compound,"hERG current change (%, negative = inhibition) at 10uM"
1,CC(Oc1ccc(F)cc1)C(=O)Nc1ccccc1C(=O)NC1CC1 (stereo not drawn),-27.6%
2,Cc1ccccc1-c1cc(-c2ccccc2O)on1,-4.7%
3,NC(=O)[C@@H]1CCCN1Cc1nc(-c2ccccc2)no1,11.5%
4,CCC(C)(C)NC(=O)C1c2ccccc2Oc2ccccc21,23%
5,CCNc1c(NC(=O)c2ccc3c(c2)OCO3)c(=O)oc2ccccc12,18.6%
6,CCOC(=O)Nc1ccc(S(=O)(=O)N2CCC(C)CC2)cc1,-7.86%
7,CCn1c(=S)sc2nc(C)sc21,1.32%
8,CCC(=O)N1CCCc2cc(S(=O)(=O)N3CCN(C4CCCCC4)CC3)ccc21,-27%
9,O=C(CSc1ncnc2sc3c(c12)CCCC3)c1ccco1,6.66%
10,COc1cccc(-c2nc(COc3ccc(Cl)cc3Cl)no2)c1,4.12%
11,O=C(c1cccc(Cl)c1)N1CCC2(CC1)NCCc1[nH]cnc12,19.6%
12,CCN(CC)C(=O)c1ccc(Cn2cc([N+](=O)[O-])cn2)o1,-13.1%
13,CC(=O)Nc1ccc(C2C(=O)c3ccccc3C2=O)cc1,21.4%
14,C/C=C(\C)C(=O)NCCN1C2=NC[C@@H](C)N2C[C@H]1Cc1ccc(O)cc1,12.9%
15,O=C(/C=C/c1ccco1)N1CCN(C/C=C/c2ccccc2)CC1,-58.8%
16,CC(Sc1nc(-c2ccccc2)cc(C(F)(F)F)n1)C(=O)Nc1sc2c(c1C(N)=O)CCC2 (stereo not drawn),8.35%
17,COc1ccc(/C=N/NC(=O)CNC(=O)c2ccc(S(=O)(=O)N3CCOCC3)cc2)c(OC)c1,-6.47%
18,Cc1cc(C)c(S(=O)(=O)c2ccccc2C)c(OCCN(C)C)n1,-20.2%
19,Cc1ccccc1NC(=O)Cn1nc(-c2ccccc2)nc1-c1ccccc1,-7.03%

row,Compound,"hERG current change (%, negative = inhibition) at 10uM"
1,CC(=O)c1cccc(S(=O)(=O)N(CCCO)Cc2cc3ccc(C)cc3[nH]c2=O)c1,-5.88%
2,C/C(=C\c1ccco1)CN1CCC(N2CCC(C(=O)N3CCOCC3)CC2)CC1,-78.9%
3,C=CCNc1nc2c(c(=O)[nH]c(=O)n2C)n1CCCc1ccccc1,-4.44%
4,COc1cc(-c2noc(C)c2C(=O)NCCc2c[nH]c3ccccc23)cc(OC)c1OC,0.397%
5,N#CC1=C2SCN(Cc3ccccc3)CN2C(=O)CC1c1ccccc1F (stereo not drawn),10.9%
6,COc1ccc(S(=O)(=O)N2CCCC2C(=O)Nc2nnc(-c3cccnc3)s2)cc1 (stereo not drawn),5.55%
7,CCCC1(C(=O)OCC)NC(c2ccc(N(C)C)cc2)C2C(=O)N(c3ccccc3)C(=O)C21 (stereo not drawn),-10.3%
8,CC1(C)Cc2c(sc(NC(=O)/C=C/C(=O)O)c2C#N)CO1,20%
9,CCOc1ccccc1NC(=S)NCC1CCCO1 (stereo not drawn),0.812%
10,CCC1CCCCN1S(=O)(=O)c1ccccc1[N+](=O)[O-] (stereo not drawn),20.3%
11,N#Cc1ccc(CSCC(=O)NN=C2CCCC2)cc1,4.16%
12,CCC1CN(C(=O)N2CCC(C(=O)NCc3ccc(C)o3)CC2)c2cc(C)ccc2O1 (stereo not drawn),-18.1%
13,C=CCOc1c2ccc(C(=O)NC3CCCc4ccccc43)cc2nn1C (stereo not drawn),-1.02%
14,O=S(=O)(Nc1ccccn1)c1cccc(S(=O)(=O)c2ccc(Br)cc2)c1,1.32%
15,COc1cc(NC(=O)c2cccs2)ccc1NC(=O)c1ccccc1Cl,5.34%
16,COc1ccc(C(=O)CC(=O)c2ccc(OC)cc2)cc1,19.5%
17,COc1cccc(NC(=O)CSc2ccc(-c3sc(C)nc3C)nn2)c1,18.3%
18,O=C(NCc1ccc(F)cc1)C(c1ccccc1)N(C(=O)c1csnn1)C1CCCC1 (stereo not drawn),-2.42%
19,O=C(CN1C(=O)CNC1=O)Nc1cccc(C(F)(F)F)c1,8.56%

row,Compound,"hERG current change (%, negative = inhibition) at 10uM"
1,O=C(O)c1ccc(NC(=S)NC(=O)c2cccnc2)cc1,20.8%
2,CS(=O)(=O)c1cccc(-c2nnc(NC(=O)C3=COCCO3)o2)c1,-8.49%
3,C=CCn1c(NC(=O)c2ccc(Br)o2)c(S(=O)(=O)c2ccccc2)c2nc3ccccc3nc21,-4.03%
4,Cc1ncc(CN2CCN(Cc3ccc(F)cc3)C(CCO)C2)s1 (stereo not drawn),9.56%
5,COCCCNC(=O)CS(=O)Cc1nc(-c2ccccc2C)oc1C (stereo not drawn),-7.39%
6,Cc1c(Cl)c([N+](=O)[O-])nn1CC(=O)N1CCCc2ccccc21,30.5%
7,O=C(CSCc1ccccc1)NNC(=S)Nc1cccc(Cl)c1Cl,2.47%
8,Cl.Clc1ccc(CSC2=NCCCN2)cc1Cl,-18.2%
9,CS(=O)(=O)N1N=C(c2ccccc2)CC1c1cccs1 (stereo not drawn),0.0514%
10,C[C@@H]1CCC2[C@](C)(CO)[C@@H](O)CC[C@]2(C)[C@@]12CCC(CO)(CCO)O2 (stereo partly drawn),26.8%
11,Cc1ccc(CN2CCN(CC(C)C)C(CCO)C2)s1 (stereo not drawn),-21.5%
12,O=C(CN1C(=O)COc2ccccc21)N(CCCN1CCOCC1)CC1CC=CCC1 (stereo not drawn),-29.2%
13,O=C(NCc1ccco1)C(c1cccs1)N(C(=O)C1COc2ccccc2O1)c1cccc(O)c1 (stereo not drawn),-22.5%
14,O=C(NNC(=O)c1cccs1)c1cccnc1,6.86%
15,Nc1nc(CCl)nc(Nc2ccccc2)n1,20.7%
16,COc1cccc(C(=O)NCCSc2ccc(F)cc2)c1,-0.418%
17,O=C(CSCc1c(Cl)cccc1Cl)Nc1cccnc1,-17.8%
18,COc1cc(NC2c3ccccc3C(=O)N2c2ccc(C)cn2)cc(OC)c1OC (stereo not drawn),-14.3%
19,Br.C=CCn1c(=N)n(CC(=O)c2cccc([N+](=O)[O-])c2)c2ccccc21,-56.7%
